From article PMC12136788
Some of the results follow.

T1: UNK ZnF1-3 (human, UniProt Q9C0B0 31-174)
T1 sequence: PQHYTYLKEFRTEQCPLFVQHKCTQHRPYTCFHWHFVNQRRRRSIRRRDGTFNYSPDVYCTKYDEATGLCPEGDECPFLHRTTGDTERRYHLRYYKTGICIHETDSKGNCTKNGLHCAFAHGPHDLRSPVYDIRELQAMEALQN

B1: chr14:76904430:76904431:+_ENSMUSG00000022010_ENSMUST00000022587|mus_mus|mus_mus_mus_hu_True|48_58 (ssRNA)
RNA: GGGAGUUCUACAGUCCGACGAUCUGCAGCCAAAAACACCCUCGUGGAAAAAAAGAGGGAACACCAGCAGCCUUGUACAAACUAGAUAAAACCGCCUGGCUUUCCGCAGCCCAGGGAGAAACAGAAAACGGCAGCCCUAAUUUACAACAGAGGAUUGAGCAUCA
B2: chrX:69798090:69798091:-_ENSMUSG00000031343_ENSMUST00000055966|mus_mus|mus_mus_mus_hu_False|78_108 (ssRNA)
RNA: GGGAGUUCUACAGUCCGACGAUCAAGUCCCCAGGUUCUUGUCGUCUUGAUUCCCCUUGGCUAGUGGUUCCAGGGAGAAUAUUAAUCAGGAAAAGAAUCCCAAGGCUGGUCAUGUAACAGUGACUUGUUUGUGUGAUUAUCAUCCAACAGAGGAUUGAGCAUCA
B3: 9574609_9576051_2272_CDS_ENSMUSG00000048264_ENSMUST00000174552|mouse|control|control (ssRNA)
RNA: GGGAGUUCUACAGUCCGACGAUCCCAGGGAUUUGCUCCAUCAGCCACUAUUAACAUGCGCAGCGAGGACAGGUUGACAUCUCUCUGAUCUCUGUGUGCUACAAGUGCCCAGUGCAUGUCUCUUGAUUUCACACAAGCCACUUUCAACAGAGGAUUGAGCAUCA
B4: chr7:97619395:97619396:-_ENSMUSG00000030614_ENSMUST00000032843|mus_mus|FALSE|FALSE (ssRNA)
RNA: GGGAGUUCUACAGUCCGACGAUCCAGGGAUGCAUAGGUCUUCAAAGCUUCAUAUUUAACCUUGAAACUGUUUCGGAAAACUAAGUUUGCCAUUAUGCCAGACAAACUACUACUUGUUCCAAAGACCAAAGUUCCAUGUAUAUUCAACAGAGGAUUGAGCAUCA
B5: chr2:65539780:65539781:-_ENSG00000198369_ENST00000356388|hu_mus|motif|central (ssRNA)
RNA: GGGAGUUCUACAGUCCGACGAUCGUUUGUAAAAUAAUUGAGUAAAAUUUAUCUCACUGAUGUGUUAUUCUAAGUAUUGCGGGGAUUUUAGAAGUGGCAAUGCAAUUCUAAAAAGUCCUAUUUUUCGGGUCAACUGGGCAAGCUCAACAGAGGAUUGAGCAUCA
B6: chr14:78183846:78183847:+_ENSG00000119705_ENST00000557342|hu_hu|hu_hu_hu_mus_False|18_18 (ssRNA)
RNA: GGGAGUUCUACAGUCCGACGAUCUCUCAGAAAUCUUUCUUCAUCAGAUGUUUGAGCUCCGUGCAAAGCCUUUGCUCUUUGAGCUUGAACGUGGAUCUAUGGGAGGGAAAGCACUGUAUUUUCCUGUAAUUUUUUUUUUAAAGACAACAGAGGAUUGAGCAUCA

Each binder was assayed against T1, UNK ZnF1-3 (assay: nsRBNS (natural sequence RNA bind-n-seq); RBNS binding buffer (assumed for nsRBNS): 25 mM Tris pH 7.5, 150 mM KCl, 3 mM MgCl2, 0.01% Triton X-100, 500 ug/ml BSA, 20 U/ml SUPERase-In, 4 C; UNK is unkempt and MSI1 is Musashi-1; names of the RNAs are library labels; protein concentration not given here; high values mean tight binding).

Binder | binding signal
B1 | 2.37 enrichment R
B2 | 0.716 enrichment R
B3 | 1.05 enrichment R
B4 | 0.55 enrichment R
B5 | 0.77 enrichment R
B6 | 0.869 enrichment R
